# Results as given in paper PMC4336329 (PLoS ONE, 2015).
# Hit rate of the full screen: of about 310,000 compounds, about 2,200 (0.71%) showed an effect of 50% or more. Effects have a minus sign here. The list shows a part of the results.
# Target: human ether-à-go-go-related gene (hERG) potassium channel (human, UniProt Q12809)
# Test: primary screen, population patch clamp on CHO cells stably expressing hERG
# Sequence of human ether-à-go-go-related gene (hERG) potassium channel (Q12809 whole entry, looked up): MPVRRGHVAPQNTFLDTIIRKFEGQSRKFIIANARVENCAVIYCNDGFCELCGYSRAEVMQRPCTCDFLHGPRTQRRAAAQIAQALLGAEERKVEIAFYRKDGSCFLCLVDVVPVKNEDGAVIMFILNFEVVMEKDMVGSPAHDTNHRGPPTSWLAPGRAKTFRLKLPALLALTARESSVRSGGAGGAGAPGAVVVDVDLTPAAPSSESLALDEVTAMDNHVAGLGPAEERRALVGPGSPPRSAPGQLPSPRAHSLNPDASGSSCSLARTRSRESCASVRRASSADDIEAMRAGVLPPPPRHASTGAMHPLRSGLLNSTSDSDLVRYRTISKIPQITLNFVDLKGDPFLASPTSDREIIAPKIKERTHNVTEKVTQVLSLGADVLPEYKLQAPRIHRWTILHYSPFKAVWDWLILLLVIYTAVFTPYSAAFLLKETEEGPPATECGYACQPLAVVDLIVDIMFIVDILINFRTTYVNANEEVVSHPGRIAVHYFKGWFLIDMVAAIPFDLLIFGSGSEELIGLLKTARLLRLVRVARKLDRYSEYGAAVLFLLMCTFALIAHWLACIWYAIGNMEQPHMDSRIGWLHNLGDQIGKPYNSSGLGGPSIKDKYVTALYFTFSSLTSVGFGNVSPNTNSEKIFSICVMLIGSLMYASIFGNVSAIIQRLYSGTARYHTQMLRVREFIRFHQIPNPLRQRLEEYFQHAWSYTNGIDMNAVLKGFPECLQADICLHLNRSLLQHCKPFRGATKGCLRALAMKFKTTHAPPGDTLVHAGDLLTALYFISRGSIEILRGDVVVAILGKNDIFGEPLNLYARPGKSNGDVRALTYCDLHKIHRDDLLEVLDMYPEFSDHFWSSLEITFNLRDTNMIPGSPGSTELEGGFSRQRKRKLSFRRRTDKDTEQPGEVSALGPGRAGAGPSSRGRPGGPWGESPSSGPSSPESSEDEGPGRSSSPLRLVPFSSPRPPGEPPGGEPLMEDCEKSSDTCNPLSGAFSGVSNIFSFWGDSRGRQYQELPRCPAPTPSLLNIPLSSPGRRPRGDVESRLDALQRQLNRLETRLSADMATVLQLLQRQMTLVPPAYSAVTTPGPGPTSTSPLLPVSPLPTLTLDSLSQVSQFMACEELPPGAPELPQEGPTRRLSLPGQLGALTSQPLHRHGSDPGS
row,SMILES,"hERG current change (%, negative = inhibition) at 1uM"
1,COc1ccc(N2CC(C(=O)OCC(=O)Nc3ccccc3C)CC2=O)cc1 (stereo not shown),17.1%
2,CCOC(=O)c1cnc2c(C)cc(C)cc2c1NCCCN1CCOCC1,-21.1%
3,CC(=O)Nc1ccc(S(=O)(=O)N2CCN=C2C)cc1,8.7%
4,CC(C)NC(=O)c1ccc2c(=O)n(C3CCCC3)c(=S)[nH]c2c1,-6.4%
5,COc1ccccc1NC(=O)c1ccc(-n2ccnc2)c([N+](=O)[O-])c1,15.9%
6,C/C=C/c1ccc(OCC(=O)N(CCOC)c2c(N)n(CCCC)c(=O)[nH]c2=O)c(OC)c1,12.2%
7,COc1ccc(Cc2nnc(N/N=C/c3ccc(O)cc3O)[nH]c2=O)cc1OC,2.64%
8,Cc1nc2ccc(S(=O)(=O)NCC(=O)N3CCN(c4ccccc4)CC3)cc2s1,4.16%
9,COc1ccc(S(=O)(=O)N2CCc3ccccc32)cc1[N+](=O)[O-],-2.47%
10,CCOc1ccc(C(=O)O)cc1OC,12.1%
11,C/C(=N/Nc1nc(C)c(C)s1)c1cccc([N+](=O)[O-])c1,11.6%
12,Cc1ccccc1-n1c(C)nnc1SCc1cc(=O)oc2ccc3ccccc3c12,-4.96%
13,O=C1CCCC2=C1C(c1ccncc1)n1c(nc3ccccc31)N2 (stereo not shown),2.23%
14,Cc1ccc(NC(=O)C2CCN(c3ncnc4sc(C)c(C)c34)CC2)cc1S(=O)(=O)N(C)C,-1.6%
15,CC(C)OP(=O)(c1ccc(N(C)C)cc1)C(O)c1ccccc1F (stereo not shown),-3.1%
16,COc1ccc2nc(SCC(=O)Nc3cc(C)on3)c(C#N)cc2c1,17.5%
17,Cc1cccc(NC(=O)CN2C(=O)/C(=C3\SC(=S)N(CC4CCCO4)C3=O)c3ccccc32)c1 (stereo not shown),17.1%
18,CCCCCCc1ccc(N2C[C@H](Cc3ccccc3)[C@@H](CC(=O)NCc3ccc(OC)cc3)C2=O)cc1,4.61%
19,Cc1occc1C(=O)NCc1nc(-c2ccccc2)no1,15.3%
20,CC(C)(C)C(=O)Nc1cc2c3c(c1)CC(=O)N3CCC2,14.4%
21,Cc1ccccc1N1C(S)=C(C#N)C(=O)NC12CCCCC2,10.7%
22,Cc1nn(Cc2c(F)c(F)c(F)c(F)c2F)c(C)c1NC(=O)c1c(-c2ccccc2)nn(-c2ccccc2)c1C,2.12%

row,SMILES,"hERG current change (%, negative = inhibition) at 1uM"
1,O=C1N/C(=N/N=C/c2ccc(F)cc2)SC1c1ccccc1 (stereo not shown),12.9%
2,O=C1OC(N2C(=O)CC[C@H]2C(=O)Nc2ccc(Br)cc2F)c2ccccc21 (stereo partly shown),11%
3,COC(=O)c1ccc(/C=C2/SC(=S)N(CCC(=O)N3CCOCC3)C2=O)cc1,20.9%
4,COC(=O)[C@H](CC(C)C)NC(=O)Nc1cccc(Br)c1,7.34%
5,Brc1ccc(-c2nnc3sc(CN4CCC5(CC4)OCCO5)cn23)cc1,9.64%
6,Cc1ccc(S(=O)(=O)Nc2c(Cl)c(Cl)c(O)c3ccccc23)cc1,14.1%
7,CCCCn1c(N)c(-c2nc3ccccc3s2)c2c([N+](=O)[O-])nn(CC)c(=O)c21,10.4%
8,O=C(CCc1nc2ccccc2c(=O)[nH]1)NCc1ccccn1,19.7%
9,O=C(NC(Cc1c[nH]c2ccccc12)c1nnc2n1CCCCC2)c1ccccc1Cl (stereo not shown),15.6%
10,CC(C)N(Cc1ccccc1)C(=O)CN1C(=O)NC2(CCCCCC2)C1=O,11.7%
11,COCCOC(=O)c1c(NC(=O)CN2CCCc3ccccc32)sc(C(N)=O)c1C,7.29%
12,Cc1ccc(S(=O)(=O)NCc2c(-c3ccccc3)c3cc(Cl)ccc3[nH]c2=O)cc1,-0.67%
13,COc1ccc(NC(=O)CC2C(=O)N(c3ccc(F)cc3)C(=S)N2NC(=O)c2ccccc2)cc1 (stereo not shown),-5.38%
14,CCOC(=O)c1ccc(NC(=S)NN2CCN(C)CC2)cc1,-0.88%
15,COc1cc(/C=N/NC(=O)c2cn(-c3cccc(C)n3)cn2)ccc1O,11.6%
16,CN1CCc2c(sc(/N=C/c3cccs3)c2C(N)=O)C1,3.2%
17,O=C(C1CCCCC1)N1CCN(c2nc(-c3ccc(F)cc3)cs2)CC1,11.4%
18,CCOCCCNC(=O)Cn1cnc2c(cnn2-c2ccc(C)c(C)c2)c1=O,11%
19,CCC(C)(C)n1nnnc1C(c1ccccc1)N1CCN(Cc2ccccc2)CC1 (stereo not shown),4.01%
20,Cc1ccccc1-c1nc(CS(=O)(=O)CC(=O)NCc2ccc(F)cc2)c(C)o1,16%
21,CCOC(=O)N1CCC(NC(=O)C2CCN(S(=O)(=O)c3c(C)noc3C)CC2)CC1,6.56%
22,CCN1CCCC1CNC(=O)C(=O)NC(C)C (stereo not shown),7.17%

row,SMILES,"hERG current change (%, negative = inhibition) at 1uM"
1,Cc1ccnc2nc(C(=O)Nc3nccs3)nn12,13%
2,O=c1cc(C(F)(F)C(F)F)oc2ccccc12,14%
3,O=C1C2CCCN2C(c2ccco2)N1c1ccc(F)cc1 (stereo not shown),6.49%
4,COc1ccccc1CNC(=O)COC(=O)Cc1c(Cl)cccc1Cl,8.67%
5,O=c1cc(O)c2c(=O)n(-c3ccccc3)c3c(c2o1)CCCCC3,16.5%
6,N#Cc1nc(-c2ccccc2F)oc1NCc1ccccc1,9.28%
7,COc1ccc(-c2[nH]ncc2CNCCn2cccn2)c(F)c1,-4.75%
8,Cc1noc(C)c1S(=O)(=O)N1CCC(C(=O)N2CCN(c3ccccc3Cl)CC2)CC1,7.87%
9,COc1cccc(-c2ccc(C#N)c(SCC(=O)NCCc3ccc(Cl)cc3)n2)c1,4.37%
10,O=C(CSCc1ccccc1)N1CCN(c2cccc(C(F)(F)F)c2)CC1,9.23%
11,N#CCSc1nnc(-c2ccccc2O)n1Cc1ccccc1,16.9%
12,COc1ccc(-n2c(Cc3cccn3C)nnc2SCC(=O)Nc2ccc3c(c2)OCO3)cc1,4.71%
13,O=C(CC(=O)NCCc1ccccc1)NCCc1ccccc1,12.8%
14,COc1ccc(C(c2sc3ncnn3c2O)N2CC(C)OC(C)C2)cc1OC (stereo not shown),9.66%
15,C=CCN(CC=C)S(=O)(=O)c1ncn[nH]1,13.4%
16,O=[N+]([O-])c1ccc(C(O)CN2CCN(c3ccccc3)CC2)cc1 (stereo not shown),-2.31%
17,CC1CCN(c2ccc(/C=N/n3nnnc3N)cc2[N+](=O)[O-])CC1,8.79%
18,CC(=O)c1cc(CC=C(C)C)c(O)cc1O,3.38%
19,Cc1nn(-c2ccc(F)cc2)c2sc(C(=O)OCC(=O)N3CCC(C)CC3)cc12,-1.89%
20,CCCCN1CNC(=S)N(CCc2ccc(OCC)c(OCC)c2)C1,13.5%
21,COc1ccc2cc(C(=O)NCCc3ccccc3)[nH]c2c1,5.84%
22,COc1ccc(CN(C(=O)Cn2nnc(-c3ccc(C)o3)n2)C(C(=O)NCC2CCCO2)c2ccco2)cc1 (stereo not shown),1.39%

row,SMILES,"hERG current change (%, negative = inhibition) at 1uM"
1,CC(=O)Nc1ccc(N2N=C(C)C(N=Nc3ccccc3)C2=O)cc1 (stereo not shown),-4.61%
2,CCOC(=O)c1cnc2c(C#N)c(C)nn2c1C,13.8%
3,O=C(O)c1cccc(N=Nc2c(O)[nH]c(=O)[nH]c2=O)c1,-0.277%
4,O=C(N/N=C/c1cccc([N+](=O)[O-])c1)c1ccc(Br)cc1,9.25%
5,Cn1cccc1Cc1nnc(SCC(N)=O)n1-c1ccc(F)cc1,4.35%
6,CC1CCN(c2nnc(-c3ccccc3)c3ccccc23)CC1,6.37%
7,CCN1CCCC1CNC(=O)CSc1cc(=O)n(C)c2cc(Cl)ccc12 (stereo not shown),-1.28%
8,COc1ccc(CC(=O)NC(c2ccccc2)c2ccccc2)cc1S(=O)(=O)N1CCOCC1,7.26%
9,COc1ccc(C(=O)NN2CCOCC2)cc1[N+](=O)[O-],11.8%
10,COc1ccccc1Nc1nc2nonc2[nH]c1=O,12.5%
11,COc1ccccc1/C=C/C=N/NC(=O)CCC1C(=O)NN=C1C (stereo not shown),13.7%
12,NNC(=O)CSCc1nc(-c2ccc(Cl)cc2)cs1,11.7%
13,COc1ccc(NC(=O)COC(=O)CN2C(=O)C3CCCCC3C2=O)cc1OC (stereo not shown),17.2%
14,CCSc1nnc(-c2ccc(S(=O)(=O)N3CCCC3)cc2)n1C,9.02%
15,CC1=CCn2c(=O)c3ccccc3c(=O)n2C1,11.9%
16,Cc1cccc(-n2c(C)c(-c3ccccc3)[nH]c2=S)c1,13.1%
17,COc1cc(CNC2CCCc3ccccc32)cc(OC)c1OC.O=C(O)C(=O)O (stereo not shown),-4.7%
18,[Br-].c1ccc(-c2cn(-c3ccccc3)c3[n+]2CCCS3)cc1,10.8%
19,Cc1cc(N2CCN(c3ncccn3)CC2)nc2c(C)cccc12,11.4%
20,COCCCNC(=O)CS(=O)(=O)Cc1nc(-c2cccc(OC)c2)oc1C,11.3%
21,O=C(CSCc1ccccc1)N1CCN(S(=O)(=O)c2cccc(F)c2)CC1,21.6%
22,COC(=O)c1ccc(N2CCN(C)CC2)c(NC(=O)COc2ccc(C)cc2)c1,-1.2%
